The values below come from patent publication US20100204450A1, “Preparation Method for a Protein With New Function Through Simultaneous Incorporation of Functional Elements” (priority 2005, published 2010).

This data set relates to E. coli strain. Nature of the data set: cefotaxime resistance of E. coli strain containing the evMBL8 mutant gene, growth in liquid medium (OD600). Type of data set: cell-based. The conditions noted are these: 30° C., 0.02-2.0 mg/ml cefotaxime, 0.05 mM IPTG, 0.2 mM ZnCl2. As to the method:
Also, the cefotaxime resistance of an E. coli strain containing the evMBL8 mutant gene was examined. For this purpose, each of an E. coli strain containing the evMBL8 mutant gene, and an E. coli strain containing no evMBL8 mutant gene, was cultured at 30° C. in 5 ml liquid medium containing 0.05 mM IPTG, 0.2 mM ZnCl2, […] kanamycin and varying concentrations (0.02-2.0 mg/ml) of cefotaxime, while the growth of the E. coli strains was analyzed with a spectrophotometer (OD600) at two-hr intervals.

B1: evMBL8 (protein)
chain: MKVEVLPALTTVAGWGEVPSNGYLVIDDGTKEAAIVDTPFTAIDTEKLADAAGKHGVEPTTVSATHWHWDCDGGNEELVKLESGPEVYGGDGRINLAKEKWLRALAHKIAHLSTLLVESLSVKCPYPGPGHSTDDICYFASKPGGPEPHPVFRGCFIKPCALPEVLDPTADEMAKALLEVLGRLPLDTRVYYGHEYTI
B1: the “resistance to cefotaxime relative to E. coli strain having no metallo β-lactamase activity” value is “at least 100 times”.
